Results reported in PMC12820563.
The other results are listed elsewhere or left out. The list includes weakly bound sequences.

molecular target: T1, MBP-FoxP3dN (UniProt Q99JB6); assay: PD-seq (MBP pull-down with sequencing); details: 20 mM Tris-HCl pH 7.5, 100 mM NaCl, 1.5 mM MgCl2, 0.4 uM protein, 0.1 uM dsDNA library, 30 min, room temperature, amylose pull-down; high values mean tight binding; double strand, one strand shown
T1 sequence: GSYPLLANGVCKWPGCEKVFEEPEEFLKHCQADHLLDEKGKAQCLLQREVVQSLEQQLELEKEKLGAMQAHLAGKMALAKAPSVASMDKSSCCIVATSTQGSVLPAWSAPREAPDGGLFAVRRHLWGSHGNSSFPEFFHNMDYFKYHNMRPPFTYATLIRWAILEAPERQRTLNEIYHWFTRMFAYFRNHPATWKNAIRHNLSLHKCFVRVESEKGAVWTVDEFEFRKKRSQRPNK

Sequence | binding signal (RPM ratio (pull-down/input))
GATGATTGTTCTCCCAGCTGATGAATTTTACTTATCGAGTAAACAAATTTTCCTAATCTTTCTGTTCAAGCGCCATCTAC | 1.37
GATGATTGTTCTCCCAGCTGATGAATTTAATAACTCGAGTAAACAAATTTTCCTAATCTTTCTGTTCAAGCGCCATCTAC | 0.478
GATGATTGTTCTCCCAGCTGATGAATTTAAGATCTCGAGTAAACAAATTTTCCTAATCTTTCTGTTCAAGCGCCATCTAC | 0.306
GATGATTGTTCTCCCAGCTGATGAATTCTACAAGTCGAGTAAACAAATTTTCCTAATCTTTCTGTTCAAGCGCCATCTAC | 0.249
GATGATTGTTCTCCCAGCTGATGAATTAGTGCTGTCGAGTAAACAAATTTTCCTAATCTTTCTGTTCAAGCGCCATCTAC | 0.874
GATGATTGTTCTCCCAGCTGATGAATTAAAACCATCGAGTAAACAAATTTTCCTAATCTTTCTGTTCAAGCGCCATCTAC | 0.316
GATGATTGTTCTCCCAGCTGATGAATTTATCTTTTCGAGTAAACAAATTTTCCTAATCTTTCTGTTCAAGCGCCATCTAC | 0.528
GATGATTGTTCTCCCAGCTGATGAATTACCTATCTCGAGTAAACAAATTTTCCTAATCTTTCTGTTCAAGCGCCATCTAC | 0.386
GATGATTGTTCTCCCAGCTGATGAATTCGGTACGTCGAGTAAACAAATTTTCCTAATCTTTCTGTTCAAGCGCCATCTAC | 0.515
GATGATTGTTCTCCCAGCTGATGAATTTGTCGCGTCGAGTAAACAAATTTTCCTAATCTTTCTGTTCAAGCGCCATCTAC | 3.09
GATGATTGTTCTCCCAGCTGATGAATTTAGAAGTTCGAGTAAACAAATTTTCCTAATCTTTCTGTTCAAGCGCCATCTAC | 0.345
GATGATTGTTCTCCCAGCTGATGAATTCCTTTGATCGAGTAAACAAATTTTCCTAATCTTTCTGTTCAAGCGCCATCTAC | 0.255
GATGATTGTTCTCCCAGCTGATGAATTGTTGCAGTCGAGTAAACAAATTTTCCTAATCTTTCTGTTCAAGCGCCATCTAC | 2.79
GATGATTGTTCTCCCAGCTGATGAATTTTTTTTATCGAGTAAACAAATTTTCCTAATCTTTCTGTTCAAGCGCCATCTAC | 0.295
GATGATTGTTCTCCCAGCTGATGAATTGCTGGACTCGAGTAAACAAATTTTCCTAATCTTTCTGTTCAAGCGCCATCTAC | 0.392
GATGATTGTTCTCCCAGCTGATGAATTACTGAGATCGAGTAAACAAATTTTCCTAATCTTTCTGTTCAAGCGCCATCTAC | 0.271
GATGATTGTTCTCCCAGCTGATGAATTGCATGTTTCGAGTAAACAAATTTTCCTAATCTTTCTGTTCAAGCGCCATCTAC | 2.47
GATGATTGTTCTCCCAGCTGATGAATTATGCTGATCGAGTAAACAAATTTTCCTAATCTTTCTGTTCAAGCGCCATCTAC | 2.01
GATGATTGTTCTCCCAGCTGATGAATTAAGGACATCGAGTAAACAAATTTTCCTAATCTTTCTGTTCAAGCGCCATCTAC | 0.425
GATGATTGTTCTCCCAGCTGATGAATTGTGCTCCTCGAGTAAACAAATTTTCCTAATCTTTCTGTTCAAGCGCCATCTAC | 1.3
GATGATTGTTCTCCCAGCTGATGAATTTGGTTTTTCGAGTAAACAAATTTTCCTAATCTTTCTGTTCAAGCGCCATCTAC | 2.25

Sequence | binding signal (RPM ratio (pull-down/input))
GATGATTGTTCTCCCAGCTGATGAATTTGGAATATCGAGTAAACAAATTTTCCTAATCTTTCTGTTCAAGCGCCATCTAC | 0.536
GATGATTGTTCTCCCAGCTGATGAATTGTGTAGATCGAGTAAACAAATTTTCCTAATCTTTCTGTTCAAGCGCCATCTAC | 2.16
GATGATTGTTCTCCCAGCTGATGAATTTAGGGTGTCGAGTAAACAAATTTTCCTAATCTTTCTGTTCAAGCGCCATCTAC | 1.23
GATGATTGTTCTCCCAGCTGATGAATTAATACTGTCGAGTAAACAAATTTTCCTAATCTTTCTGTTCAAGCGCCATCTAC | 0.475
GATGATTGTTCTCCCAGCTGATGAATTGTTGCCTTCGAGTAAACAAATTTTCCTAATCTTTCTGTTCAAGCGCCATCTAC | 4.01
GATGATTGTTCTCCCAGCTGATGAATTAGTGGATTCGAGTAAACAAATTTTCCTAATCTTTCTGTTCAAGCGCCATCTAC | 0.984
GATGATTGTTCTCCCAGCTGATGAATTTGTCTTGTCGAGTAAACAAATTTTCCTAATCTTTCTGTTCAAGCGCCATCTAC | 4.08
GATGATTGTTCTCCCAGCTGATGAATTCTGAGCATCGAGTAAACAAATTTTCCTAATCTTTCTGTTCAAGCGCCATCTAC | 0.756
GATGATTGTTCTCCCAGCTGATGAATTAATAAATTCGAGTAAACAAATTTTCCTAATCTTTCTGTTCAAGCGCCATCTAC | 0.343
GATGATTGTTCTCCCAGCTGATGAATTCACTTGATCGAGTAAACAAATTTTCCTAATCTTTCTGTTCAAGCGCCATCTAC | 0.317
GATGATTGTTCTCCCAGCTGATGAATTCCTCACCTCGAGTAAACAAATTTTCCTAATCTTTCTGTTCAAGCGCCATCTAC | 0.251
GATGATTGTTCTCCCAGCTGATGAATTTCAAATGTCGAGTAAACAAATTTTCCTAATCTTTCTGTTCAAGCGCCATCTAC | 0.275
GATGATTGTTCTCCCAGCTGATGAATTAAGTGGGTCGAGTAAACAAATTTTCCTAATCTTTCTGTTCAAGCGCCATCTAC | 0.63
GATGATTGTTCTCCCAGCTGATGAATTCCAGATCTCGAGTAAACAAATTTTCCTAATCTTTCTGTTCAAGCGCCATCTAC | 0.24
GATGATTGTTCTCCCAGCTGATGAATTCCAGTCCTCGAGTAAACAAATTTTCCTAATCTTTCTGTTCAAGCGCCATCTAC | 0.408
GATGATTGTTCTCCCAGCTGATGAATTTAAAGGGTCGAGTAAACAAATTTTCCTAATCTTTCTGTTCAAGCGCCATCTAC | 0.218
GATGATTGTTCTCCCAGCTGATGAATTTTTCTGATCGAGTAAACAAATTTTCCTAATCTTTCTGTTCAAGCGCCATCTAC | 0.211
GATGATTGTTCTCCCAGCTGATGAATTGTTAAGCTCGAGTAAACAAATTTTCCTAATCTTTCTGTTCAAGCGCCATCTAC | 0.371
GATGATTGTTCTCCCAGCTGATGAATTCAACATTTCGAGTAAACAAATTTTCCTAATCTTTCTGTTCAAGCGCCATCTAC | 0.513
GATGATTGTTCTCCCAGCTGATGAATTTTCAACCTCGAGTAAACAAATTTTCCTAATCTTTCTGTTCAAGCGCCATCTAC | 0.255
GATGATTGTTCTCCCAGCTGATGAATTTCAAACATCGAGTAAACAAATTTTCCTAATCTTTCTGTTCAAGCGCCATCTAC | 0.569

Sequence | binding signal (RPM ratio (pull-down/input))
GATGATTGTTCTCCCAGCTGATGAATTTCACAGGTCGAGTAAACAAATTTTCCTAATCTTTCTGTTCAAGCGCCATCTAC | 0.242
GATGATTGTTCTCCCAGCTGATGAATTGAACCTCTCGAGTAAACAAATTTTCCTAATCTTTCTGTTCAAGCGCCATCTAC | 0.351
GATGATTGTTCTCCCAGCTGATGAATTGGCATAGTCGAGTAAACAAATTTTCCTAATCTTTCTGTTCAAGCGCCATCTAC | 0.503
GATGATTGTTCTCCCAGCTGATGAATTAGCTCTCTCGAGTAAACAAATTTTCCTAATCTTTCTGTTCAAGCGCCATCTAC | 0.316
GATGATTGTTCTCCCAGCTGATGAATTGAGTATCTCGAGTAAACAAATTTTCCTAATCTTTCTGTTCAAGCGCCATCTAC | 3.35
GATGATTGTTCTCCCAGCTGATGAATTAGATCAATCGAGTAAACAAATTTTCCTAATCTTTCTGTTCAAGCGCCATCTAC | 0.286
GATGATTGTTCTCCCAGCTGATGAATTGGGCACGTCGAGTAAACAAATTTTCCTAATCTTTCTGTTCAAGCGCCATCTAC | 0.887
GATGATTGTTCTCCCAGCTGATGAATTGGAATTATCGAGTAAACAAATTTTCCTAATCTTTCTGTTCAAGCGCCATCTAC | 0.625
GATGATTGTTCTCCCAGCTGATGAATTAGCTTACTCGAGTAAACAAATTTTCCTAATCTTTCTGTTCAAGCGCCATCTAC | 3.94
GATGATTGTTCTCCCAGCTGATGAATTCGATTGTTCGAGTAAACAAATTTTCCTAATCTTTCTGTTCAAGCGCCATCTAC | 4.97
GATGATTGTTCTCCCAGCTGATGAATTCACATATTCGAGTAAACAAATTTTCCTAATCTTTCTGTTCAAGCGCCATCTAC | 0.448
GATGATTGTTCTCCCAGCTGATGAATTTCCAACGTCGAGTAAACAAATTTTCCTAATCTTTCTGTTCAAGCGCCATCTAC | 0.279
GATGATTGTTCTCCCAGCTGATGAATTTACTTTGTCGAGTAAACAAATTTTCCTAATCTTTCTGTTCAAGCGCCATCTAC | 1.71
GATGATTGTTCTCCCAGCTGATGAATTAACCGAGTCGAGTAAACAAATTTTCCTAATCTTTCTGTTCAAGCGCCATCTAC | 0.206
GATGATTGTTCTCCCAGCTGATGAATTGGAAACATCGAGTAAACAAATTTTCCTAATCTTTCTGTTCAAGCGCCATCTAC | 0.723
GATGATTGTTCTCCCAGCTGATGAATTGCCGATTTCGAGTAAACAAATTTTCCTAATCTTTCTGTTCAAGCGCCATCTAC | 0.713
GATGATTGTTCTCCCAGCTGATGAATTGATGTCTTCGAGTAAACAAATTTTCCTAATCTTTCTGTTCAAGCGCCATCTAC | 1.07
GATGATTGTTCTCCCAGCTGATGAATTACAGATTTCGAGTAAACAAATTTTCCTAATCTTTCTGTTCAAGCGCCATCTAC | 0.415
GATGATTGTTCTCCCAGCTGATGAATTCGCAACCTCGAGTAAACAAATTTTCCTAATCTTTCTGTTCAAGCGCCATCTAC | 2.25
GATGATTGTTCTCCCAGCTGATGAATTAGTATTCTCGAGTAAACAAATTTTCCTAATCTTTCTGTTCAAGCGCCATCTAC | 2.97
GATGATTGTTCTCCCAGCTGATGAATTCGCAGGTTCGAGTAAACAAATTTTCCTAATCTTTCTGTTCAAGCGCCATCTAC | 0.338
